From patent EP0545991B1, “PEPTIDES THAT BLOCK HUMAN IMMUNODEFICIENCY VIRUS INFECTIONS AND METHODS OF USE THEREOF” (VAHLNE, Anders, priority 1990, dated 1992)
At least one peptide structure holds a part that was inferred or is arguable (an end, a ring closure or a residue). Where a SMILES comes first, the peptide text is derived from it.

Columns and labels:
SIV/HPBLC = experiment: SIV replication in HPBLC, p24 antigen ELISA; format: cell-based, simian immunodeficiency virus (SIV)
HTLV IIIB/H9 Denmark = experiment: Infectivity assay (p24 ELISA, syncytia formation, indirect immunofluorescence), HTLV-IIIB/H9 Denmark; format: cell-based, HIV
[1] = 0.015 mM, two weeks post-infection, Table 13
[2] = 0.0625 mM, two weeks post-infection, Table 13
[3] = 0.25 mM, two weeks post-infection, Table 13
[4] = 1 mM, two weeks post-infection, Table 13
[5] = 4 mM, two weeks post-infection, Table 13

SMILES: NCC(=O)N1CCC[C@H]1C(=O)NCC(N)=O [GPG, Gly-Pro-Gly-NH2] (H-Gly-Pro-Gly-NH2)
- p24 1/1 (SIV/HPBLC; 0.015 µM, Table 14): 1.173 absorbance (454 nm)
- p24 1/10 (SIV/HPBLC; 0.015 µM, Table 14): 0.998 absorbance (454 nm)
- p24 1/1 (SIV/HPBLC; 0.0625 µM, Table 14): 1.133 absorbance (454 nm)
- p24 1/10 (SIV/HPBLC; 0.0625 µM, Table 14): 0.792 absorbance (454 nm)
- p24 1/1 (SIV/HPBLC; 0.2 µM, Table 14): 1.102 absorbance (454 nm)
- p24 1/10 (SIV/HPBLC; 0.2 µM, Table 14): 0.826 absorbance (454 nm)
- p24 1/1 (SIV/HPBLC; 0.25 µM, Table 14): 0.509 absorbance (454 nm)
- p24 1/10 (SIV/HPBLC; 0.25 µM, Table 14): 0.090 absorbance (454 nm)
- p24 1/1 (SIV/HPBLC; 1 µM, Table 14): 0.043 absorbance (454 nm)
- p24 1/10 (SIV/HPBLC; 1 µM, Table 14): 0.032 absorbance (454 nm)
- p24 1/1 (SIV/HPBLC; 4 µM, Table 14): 0.035 absorbance (454 nm)
- p24 1/10 (SIV/HPBLC; 4 µM, Table 14): 0.035 absorbance (454 nm)
- p24 1/1 (SIV/HPBLC; [1]): 1.392 absorbance (454 nm)
- p24 1/10 (SIV/HPBLC; [1]): 0.936 absorbance (454 nm)
- p24 1/1 (SIV/HPBLC; [2]): 1.361 absorbance (454 nm)
- p24 1/10 (SIV/HPBLC; [2]): 0.776 absorbance (454 nm)
- p24 1/1 (SIV/HPBLC; [3]): 1.142 absorbance (454 nm)
- p24 1/10 (SIV/HPBLC; [3]): 0.312 absorbance (454 nm)
- p24 1/1 (SIV/HPBLC; [4]): 0.149 absorbance (454 nm)
- p24 1/10 (SIV/HPBLC; [4]): 0.064 absorbance (454 nm)
- p24 1/1 (SIV/HPBLC; [5]): 0.064 absorbance (454 nm)
- p24 1/10 (SIV/HPBLC; [5]): 0.053 absorbance (454 nm)
- concentration by which SIV was inhibited (SIV/HPBLC; Tables 13 and 14): 1 mM
- # OF SYNCYTIA/WELL Day 9 (HTLV IIIB/H9 Denmark; 25 µg/ml): 0
- % OF POS CELLS (HTLV IIIB/H9 Denmark; 25 µg/ml): 1-2%
- p24 1/10 (HTLV IIIB/H9 Denmark; 25 µg/ml): 1.009 absorbance (454 nm)
- p24 1/100 (HTLV IIIB/H9 Denmark; 25 µg/ml): 0.207 absorbance (454 nm)
- p24 1/1,000 (HTLV IIIB/H9 Denmark; 25 µg/ml): 0.097 absorbance (454 nm)
- p24 1/10,000 (HTLV IIIB/H9 Denmark; 25 µg/ml): 0.079 absorbance (454 nm)
- # OF SYNCYTIA/WELL Day 9 (HTLV IIIB/H9 Denmark; 250 µg/ml): 0
- % OF POS CELLS (HTLV IIIB/H9 Denmark; 250 µg/ml): 0%
- p24 1/10 (HTLV IIIB/H9 Denmark; 250 µg/ml): 0.236 absorbance (454 nm)
- p24 1/100 (HTLV IIIB/H9 Denmark; 250 µg/ml): 0.13 absorbance (454 nm)
- p24 1/1,000 (HTLV IIIB/H9 Denmark; 250 µg/ml): 0.116 absorbance (454 nm)
- p24 1/10,000 (HTLV IIIB/H9 Denmark; 250 µg/ml): 0.094 absorbance (454 nm)
